Measurements: the antibiotic and cytotoxicity screens of Wong et al. (2023)
The other results are listed elsewhere or left out.

Columns and labels:
[1] = system: HSkMC (human skeletal muscle cells); assay: cytotoxicity call (relative viability < 0.9); conditions: 10 µM
[2] = system: HepG2; assay: cytotoxicity call (relative viability < 0.9); conditions: 10 µM
[3] = system: S. aureus RN4220; assay: growth inhibition call (relative growth <= 0.2); conditions: 50 µM

C[C@H]1CN([C@@H](C)CO)C(=O)c2cc(NC(=O)NC3CCCCC3)ccc2O[C@@H]1CN(C)S(C)(=O)=O
cytotoxicity call [1]: inactive | cytotoxicity call [2]: inactive | growth inhibition call [3]: inactive

COc1ccc(-c2ccc3n(c2=O)C[C@@H]2[C@@H](CO)[C@H](C(=O)NCC4CC4)[C@H]3N2S(C)(=O)=O)cc1
cytotoxicity call [1]: inactive | cytotoxicity call [2]: inactive | growth inhibition call [3]: inactive

O=C(C[C@@H]1CC=CC[C@H](NC(=O)OCC2c3ccccc3-c3ccccc32)C(=O)OC[C@@H](Cc2c[nH]c3ccccc23)NC1=O)N[C@H](CO)Cc1ccccc1
cytotoxicity call [1]: inactive | cytotoxicity call [2]: inactive | growth inhibition call [3]: inactive

COc1ccc(NC(=O)N(C)C[C@@H]2Oc3ccc(NC(=O)Cn4cnnn4)cc3C(=O)N([C@H](C)CO)C[C@@H]2C)cc1
cytotoxicity call [1]: inactive | cytotoxicity call [2]: inactive | growth inhibition call [3]: inactive

C[C@@H]1CN([C@@H](C)CO)C(=O)Cc2cc(NS(C)(=O)=O)ccc2O[C@@H]1CN(C)C(=O)Nc1ccc(C(F)(F)F)cc1
cytotoxicity call [1]: inactive | cytotoxicity call [2]: inactive | growth inhibition call [3]: inactive

C[C@@H]1CCCCO[C@@H](CN(C)C(=O)Cc2ccccc2)[C@@H](C)CN([C@H](C)CO)C(=O)c2cc(NC(=O)C3CCCCC3)ccc2O1
cytotoxicity call [1]: inactive | cytotoxicity call [2]: inactive | growth inhibition call [3]: inactive

C[C@@H]1CCCCO[C@@H](CN(C)C(=O)Nc2cccc3ccccc23)[C@@H](C)CN([C@H](C)CO)C(=O)c2cc(NC(=O)NC3CCCCC3)ccc2O1
cytotoxicity call [1]: inactive | cytotoxicity call [2]: inactive | growth inhibition call [3]: inactive

CO[C@H]1C[C@@H]2CC[C@@H](C)[C@@](O)(O2)C(=O)C(=O)N2CCCC[C@H]2C(=O)O[C@H]([C@H](C)C[C@@H]2CC[C@@H](OC(=O)C(C)(CO)CO)[C@H](OC)C2)CC(=O)[C@H](C)/C=C(\C)[C@@H](O)[C@@H](OC)C(=O)[C@H](C)C[C@H](C)/C=C/C=C/C=C/1C
cytotoxicity call [1]: inactive | cytotoxicity call [2]: inactive | growth inhibition call [3]: inactive

CO[C@H](CN(C)S(=O)(=O)c1ccc(Cl)cc1)[C@H](C)CN([C@H](C)CO)S(=O)(=O)c1cccc(Cl)c1
cytotoxicity call [1]: inactive | cytotoxicity call [2]: inactive | growth inhibition call [3]: inactive

C[C@H](CO)N1C[C@H](C)[C@@H](CN(C)C(=O)c2ccccc2)OCCCC[C@H](C)Oc2ccc(NS(=O)(=O)c3ccc(F)cc3)cc2C1=O
cytotoxicity call [1]: inactive | cytotoxicity call [2]: inactive | growth inhibition call [3]: inactive

COc1ccc(NC(=O)Nc2ccc3c(c2)C(=O)N([C@H](C)CO)C[C@H](C)[C@@H](CN(C)C(=O)Nc2ccc(OC)cc2)OCCCC[C@@H](C)O3)cc1
cytotoxicity call [1]: inactive | cytotoxicity call [2]: inactive | growth inhibition call [3]: inactive

NCc1ccccc1Oc1ccccc1
cytotoxicity call [1]: inactive | cytotoxicity call [2]: inactive | growth inhibition call [3]: inactive

Cc1ccc(S(=O)(=O)Nc2ccc3c(c2)C(=O)N([C@H](C)CO)C[C@@H](C)[C@@H](CN(C)C(=O)Nc2ccccc2)OCCCC[C@H](C)O3)cc1
cytotoxicity call [1]: inactive | cytotoxicity call [2]: inactive | growth inhibition call [3]: inactive

C[C@@H]1CN([C@H](C)CO)C(=O)c2cc(NS(=O)(=O)c3ccc(Cl)cc3)ccc2O[C@H]1CN(C)C(=O)Nc1cccc2ccccc12
cytotoxicity call [1]: inactive | cytotoxicity call [2]: inactive | growth inhibition call [3]: inactive

C[C@@H]1CN([C@@H](C)CO)C(=O)c2cc(NC(=O)NC3CCCCC3)ccc2O[C@@H]1CN(C)C(=O)Nc1ccc(C(F)(F)F)cc1
cytotoxicity call [1]: inactive | cytotoxicity call [2]: inactive | growth inhibition call [3]: inactive

O=C(C[C@H]1CC=CCC[C@@H](Cc2ccc(F)cc2)C(=O)OC[C@H](Cc2ccccc2)NC1=O)NCCO
cytotoxicity call [1]: inactive | cytotoxicity call [2]: inactive | growth inhibition call [3]: inactive

C[C@H]1CN([C@@H](C)CO)C(=O)c2cc(NS(=O)(=O)c3cn(C)cn3)ccc2O[C@@H]1CN(C)C(=O)NC1CCCCC1
cytotoxicity call [1]: inactive | cytotoxicity call [2]: inactive | growth inhibition call [3]: inactive

COc1ccncc1N
cytotoxicity call [1]: inactive | cytotoxicity call [2]: inactive | growth inhibition call [3]: inactive

Nc1ncnc2c1ncn2CCN1CCCCC1
cytotoxicity call [1]: inactive | cytotoxicity call [2]: inactive | growth inhibition call [3]: inactive

CC(C)NC(=O)N(C)C[C@@H]1Oc2ccc(NC(=O)Nc3ccc4c(c3)OCO4)cc2C(=O)N([C@H](C)CO)C[C@@H]1C
cytotoxicity call [1]: inactive | cytotoxicity call [2]: inactive | growth inhibition call [3]: inactive

CCN1CCN(C2=C(NS(=O)(=O)c3ccc(Br)cc3)C(=O)c3ccccc3C2=O)CC1
cytotoxicity call [1]: inactive | cytotoxicity call [2]: active | growth inhibition call [3]: inactive

O=C(C[C@H]1CC[C@H](NC(=O)Cc2ccccn2)[C@@H](CO)O1)NCCCN1CCOCC1
cytotoxicity call [1]: inactive | cytotoxicity call [2]: inactive | growth inhibition call [3]: inactive

O=C(C[C@@H]1C[C@H]2c3cc(NC(=O)NC4CCCC4)ccc3O[C@H]2[C@H](CO)O1)NCCN1CCCCC1
cytotoxicity call [1]: inactive | cytotoxicity call [2]: inactive | growth inhibition call [3]: inactive

O=C(CN1CCOCC1)NCC[C@@H]1CC[C@H](NC(=O)c2ccccc2F)[C@H](CO)O1
cytotoxicity call [1]: inactive | cytotoxicity call [2]: inactive | growth inhibition call [3]: inactive

CCC[C@@H](O)C#Cc1cnc2c(c1)C(=O)N([C@H](C)CO)C[C@H](C)[C@H](CN(C)S(=O)(=O)c1ccc(C#N)cc1)O2
cytotoxicity call [1]: inactive | cytotoxicity call [2]: inactive | growth inhibition call [3]: inactive

COCC(=O)N1C[C@H](C)[C@H](OC)CN(C)C(=O)c2ccc(NC(=O)Nc3cccc(F)c3)cc2OC[C@H]1C
cytotoxicity call [1]: inactive | cytotoxicity call [2]: inactive | growth inhibition call [3]: inactive

CC(C)NC(=O)Nc1ccc2c(c1)C(=O)N([C@@H](C)CO)C[C@H](C)[C@@H](CN(C)CC1CCCCC1)OCCCC[C@@H](C)O2
cytotoxicity call [1]: inactive | cytotoxicity call [2]: inactive | growth inhibition call [3]: inactive

C[C@@H]1CN([C@@H](C)CO)C(=O)c2cc(C#CCc3ccccc3)cnc2O[C@H]1CN(C)C(=O)C1CCOCC1
cytotoxicity call [1]: inactive | cytotoxicity call [2]: inactive | growth inhibition call [3]: inactive

C[C@@H]1CN([C@@H](C)CO)C(=O)c2cc(NS(=O)(=O)c3ccccc3)ccc2O[C@@H](C)CCCCO[C@H]1CN(C)C(=O)C1CCCCC1
cytotoxicity call [1]: inactive | cytotoxicity call [2]: inactive | growth inhibition call [3]: inactive

CC(=O)N1[C@@H]2Cn3c(ccc(-c4ccccc4)c3=O)[C@H]1[C@@H](C(=O)NCCCN1CCOCC1)[C@@H]2CO
cytotoxicity call [1]: inactive | cytotoxicity call [2]: inactive | growth inhibition call [3]: inactive

C[C@H](CO)N1C[C@H](C)[C@@H](CN(C)C(=O)Nc2ccc3c(c2)OCO3)OCCCC[C@H](C)Oc2ccc(NC(=O)Nc3ccc(C(F)(F)F)cc3)cc2C1=O
cytotoxicity call [1]: inactive | cytotoxicity call [2]: inactive | growth inhibition call [3]: inactive

CO[C@@H]1CN(C)C(=O)c2ccc(NC(=O)C3CCCC3)cc2OC[C@@H](C)N(C(=O)Nc2ccc(C(F)(F)F)cc2)C[C@H]1C
cytotoxicity call [1]: inactive | cytotoxicity call [2]: inactive | growth inhibition call [3]: inactive

C[C@@H]1CCCCO[C@H](CN(C)Cc2ccncc2)[C@@H](C)CN([C@@H](C)CO)C(=O)c2cc(NS(C)(=O)=O)ccc2O1
cytotoxicity call [1]: inactive | cytotoxicity call [2]: inactive | growth inhibition call [3]: inactive

Cc1noc(C)c1S(=O)(=O)Nc1ccc2c(c1)C(=O)N([C@@H](C)CO)C[C@@H](C)[C@H](CN(C)Cc1ccc(C(=O)O)cc1)O2
cytotoxicity call [1]: inactive | cytotoxicity call [2]: inactive | growth inhibition call [3]: inactive

C[C@H](CO)N1C[C@H](C)[C@H](CN(C)Cc2ccc(C(=O)O)cc2)OCCCC[C@H](C)Oc2ccc(NC(=O)c3ccccc3)cc2C1=O
cytotoxicity call [1]: inactive | cytotoxicity call [2]: inactive | growth inhibition call [3]: inactive

C[C@@H]1CN([C@@H](C)CO)C(=O)Cc2cc(NC(=O)Cn3cnnn3)ccc2O[C@@H]1CN(C)C(=O)Nc1cccc2ccccc12
cytotoxicity call [1]: inactive | cytotoxicity call [2]: inactive | growth inhibition call [3]: inactive

C[C@H](CO)N1C[C@H](C)[C@@H](CN(C)S(=O)(=O)c2cn(C)cn2)Oc2cc(C3=CCCC3)ccc2S1(=O)=O
cytotoxicity call [1]: inactive | cytotoxicity call [2]: inactive | growth inhibition call [3]: inactive

C[C@@H]1CN([C@@H](C)CO)C(=O)Cc2cc(NC(=O)Cc3ccccc3)ccc2O[C@H]1CN(C)S(=O)(=O)c1cn(C)cn1
cytotoxicity call [1]: inactive | cytotoxicity call [2]: inactive | growth inhibition call [3]: inactive

COc1cccc(S(=O)(=O)N(C)C[C@@H]2Oc3cc(C#CCC(C)C)ccc3S(=O)(=O)N([C@H](C)CO)C[C@@H]2C)c1
cytotoxicity call [1]: inactive | cytotoxicity call [2]: inactive | growth inhibition call [3]: inactive

C[C@@H]1CN([C@@H](C)CO)C(=O)c2cc(NC(=O)C3CCCCC3)ccc2O[C@@H](C)CCCCO[C@@H]1CN(C)C(=O)Nc1ccc(C(F)(F)F)cc1
cytotoxicity call [1]: inactive | cytotoxicity call [2]: inactive | growth inhibition call [3]: inactive

C[C@H]1CN([C@@H](C)CO)C(=O)Cc2cc(NC(=O)Nc3ccc(C(F)(F)F)cc3)ccc2O[C@H]1CN(C)C(=O)Nc1ccccc1
cytotoxicity call [1]: active | cytotoxicity call [2]: inactive | growth inhibition call [3]: inactive

C[C@H]1CCCCO[C@H](CN(C)C(=O)C2CCCCC2)[C@@H](C)CN([C@@H](C)CO)C(=O)c2cc(NC(=O)C3CCCCC3)ccc2O1
cytotoxicity call [1]: inactive | cytotoxicity call [2]: inactive | growth inhibition call [3]: inactive

Nc1nnc(CO)[nH]1
cytotoxicity call [1]: inactive | cytotoxicity call [2]: inactive | growth inhibition call [3]: inactive

C[C@H](O)C#Cc1cnc2c(c1)C(=O)N([C@H](C)CO)C[C@@H](C)[C@H](CN(C)C(=O)CN1CCOCC1)O2
cytotoxicity call [1]: inactive | cytotoxicity call [2]: inactive | growth inhibition call [3]: inactive

C[C@@H]1CN([C@H](C)CO)C(=O)Cc2cc(NC(=O)Cn3cnnn3)ccc2O[C@@H]1CN(C)C(=O)Nc1cccc2ccccc12
cytotoxicity call [1]: inactive | cytotoxicity call [2]: inactive | growth inhibition call [3]: inactive

CN1C(=O)c2cc(NS(=O)(=O)c3cccc(F)c3)ccc2OC[C@@H]2O[C@H](CC(=O)NCCN3CCCCC3)CC[C@@H]21
cytotoxicity call [1]: inactive | cytotoxicity call [2]: inactive | growth inhibition call [3]: inactive

C[C@H]1CN([C@@H](C)CO)C(=O)c2cccc(NC(=O)NC3CCCCC3)c2O[C@@H]1CN(C)Cc1ccc(C(F)(F)F)cc1
cytotoxicity call [1]: inactive | cytotoxicity call [2]: inactive | growth inhibition call [3]: inactive

C[C@H]1CN([C@@H](C)CO)C(=O)c2cc(NC(=O)Cn3cnnn3)ccc2O[C@@H]1CN(C)S(=O)(=O)c1cccs1
cytotoxicity call [1]: inactive | cytotoxicity call [2]: inactive | growth inhibition call [3]: inactive

C[C@@H]1CN([C@H](C)CO)C(=O)c2cc(C#CCc3ccccc3)cnc2O[C@@H]1CN(C)CC1CCOCC1
cytotoxicity call [1]: inactive | cytotoxicity call [2]: inactive | growth inhibition call [3]: inactive

C[C@@H]1CN([C@@H](C)CO)C(=O)c2c(c3ccccc3n2C)-c2ccccc2CO[C@@H]1CN(C)C(=O)Nc1cccc(C(F)(F)F)c1
cytotoxicity call [1]: inactive | cytotoxicity call [2]: inactive | growth inhibition call [3]: inactive

C[C@@H]1CN([C@H](C)CO)C(=O)c2cc(NC(=O)Cn3cnnn3)ccc2O[C@H]1CN(C)Cc1ccc(C(=O)Nc2ccccc2N)cc1
cytotoxicity call [1]: inactive | cytotoxicity call [2]: inactive | growth inhibition call [3]: inactive

C[C@H](O)C(=O)Nc1c(I)c(C(=O)NC(CO)CO)c(I)c(C(=O)NC(CO)CO)c1I
cytotoxicity call [1]: inactive | cytotoxicity call [2]: inactive | growth inhibition call [3]: inactive
